# Test results from ChEMBL document CHEMBL1201862, “PubChem BioAssay data set” (2004).
# Test system: NCI-H322M
# Experiment: NCI-60 cell line screen, 48 h
row,SMILES,GI50
1,O=c1n(-c2ccccc2)c(=O)n2n1C1C=CC2CCCCCC1,inactive: > 100 µM
2,COc1cc2c(cc1OC)CN1CCc3ccccc3CC1C2 (stereo unspecified),inactive: 59.3 µM
3,CCCCCCN1CCc2c(C)c(C#N)c3nc4ccccc4n3c21,inactive: > 100 µM
4,CN(C)CCCN1C(=O)N(CCCN(C)C)c2c3cc(O)ccc3nc3c([N+](=O)[O-])ccc1c23,inactive: 15.8 µM
5,CCCNC1=Nc2ccccc2NC(C)C1 (stereo unspecified),inactive: > 100 µM
6,CC(C)(C)n1c(=O)n(C(=O)C(Cl)(Cl)Cl)n(C(=O)C(Cl)(Cl)Cl)c1=O,inactive: > 100 µM
7,CN(C)/C=C/c1c2c(nc3ccccc13)C(=O)c1ccccc1C2=O,inactive: 2.04 µM
8,CN(C)c1ccc2c(c1)oc(=O)c1ccccc12,inactive: 14.6 µM
9,O=C1C(O)=C(Cl)C(=O)c2c(O)ccc(O)c21,inactive: > 100 µM
10,CCc1ccccc1NC(=O)C1=C(C)NC(C)=C(C(=O)Nc2ccccc2CC)C1c1ccc(NC(C)=O)cc1,inactive: 32.6 µM
11,CCOC(=O)/C=C/c1c(C)[nH]c(=O)[nH]c1=O,inactive: > 250 µM
12,COc1cc(/C=C/C(=O)Oc2ccc(NC(C)=O)cc2)ccc1C(=O)OCc1ccccc1,inactive: > 97.7 µM
13,COc1ccc(-c2cn3ccsc3n2)cc1,inactive: > 100 µM
14,O=C(N/C(=C\c1ccccc1Cl)c1nc2ccccc2[nH]1)c1ccccc1,inactive: 37.8 µM
15,CCCCN(CCCC)CC(=O)c1ccc2cc(Cl)c3ccccc3c2c1,inactive: 51.9 µM
16,N#Cc1c2c(c(Nc3cccc(C(F)(F)F)c3)n3c1nc1ccccc13)CCC2,inactive: > 100 µM
17,O=c1c2ccccc2nc2n1C(c1ccc([N+](=O)[O-])cc1)C2(c1ccccc1)c1ccccc1 (stereo unspecified),inactive: > 100 µM
18,C=C(CC[C@@H](C)[C@H]1CC[C@H]2[C@@H]3C[C@@H](O)[C@H]4C[C@@H](O)CC[C@]4(CO)[C@H]3CC[C@]12C)C(C)C,inactive: 5.89 µM
19,Cc1c2c(c(C)n1-c1ccccc1)C(=O)N(CCN1CCN(c3cccc(C(F)(F)F)c3)CC1)C2=O,inactive: > 100 µM
20,C=C[C@@]12CCCCC1C/C(=C(/O)OC)C(=O)C2 (stereo partly specified),inactive: > 100 µM
21,CC1(C)COC(c2cccnc2/C=N/O)=N1,inactive: > 100 µM
22,CCc1nc(N)nc(N)c1-c1ccc(Cl)c(N=[N+]=[N-])c1,inactive: 11.5 µM
23,S=c1nc(N2CCCCC2)ss1,inactive: 78.9 µM

row,SMILES,GI50
1,CN(C(=O)c1ccc(Cl)s1)C(=S)N(C)C(=O)c1ccc(Cl)s1,inactive: > 10 µM
2,CCc1c(Cc2cc(C)cc(C)c2)n2c(nc1=O)SCC2CBr (stereo unspecified),inactive: 38.3 µM
3,O=C(O)Cc1cccc2c(=O)c3cccc([N+](=O)[O-])c3oc12,inactive: > 100 µM
4,Cc1ccccc1NC(=O)CC1C(=O)Nc2ccccc2[S+]1[O-] (stereo unspecified),inactive: > 100 µM
5,Cn1c2c(c3ccccc31)CCN=C2C1CCCOC1=O (stereo unspecified),inactive: > 100 µM
6,O=C1CCC(=O)C(C(=O)CCC(=O)Nc2ccc(Cl)cc2)C1 (stereo unspecified),inactive: > 100 µM
7,CC(=O)O[C@H]1CCc2c(cc(N)c3c2C(=O)C[C@]2(C)C([C@H](C)CCCC(C)C)CCC32C)C1(C)C (stereo partly specified),inactive: > 100 µM
8,O=C(NCCCCCN1CCC2(CCCCC2)CC1)C(C1CCCCC1)C1CCCCC1,inactive: 3.85 µM
9,CC[C@H](C)c1occ2c(O)c(C(=O)O)c(=O)cc-2c1C,inactive: 24.5 µM
10,CCOC(=O)c1nc2ccc(C(F)(F)F)cc2nc1Nc1ccc(OC)c(OC)c1,inactive: > 100 µM
11,Cn1c(N)c(/N=N/c2ccc(S(N)(=O)=O)cc2)c(=O)n(C)c1=O,inactive: > 100 µM
12,CCCCCCCCCCNC(=O)CCC(NC(=O)c1ccc(N(C)Cc2cnc3nc(N)nc(N)c3n2)cc1)C(=O)NCCCCCCCCCC (stereo unspecified),inactive: 12 µM
13,CC1(c2sccc2Cl)CC(c2sccc2Cl)=C(C#N)C(=C(C#N)C#N)N1 (stereo unspecified),inactive: 18.3 µM
14,CCCCSC1CCSc2c1ccc1ccccc21 (stereo unspecified),inactive: > 100 µM
15,O=C(O)CCC/N=C(\C(=N\CCCC(=O)O)c1ccccc1)c1ccccc1,inactive: > 100 µM
16,CCCCCCCCCOC(=S)NC,inactive: 30.2 µM
17,CC[C@H]1OC([C@H](O)C/C=C\C#C[Si](C)(C)C)C/C=C\C[C@H]1O[Si](C)(C)C(C)(C)C (stereo partly specified),inactive: > 100 µM
18,Cc1sc(/N=C/c2c[nH]c3ccccc23)c(C#N)c1C,inactive: 39 µM
19,CC(=O)CC1(C)OC(N)=C(C#N)C1(C#N)C#N (stereo unspecified),inactive: > 100 µM
20,CCn1c2ccccc2c2nnc(NCCCO)nc21,inactive: > 100 µM
21,Cc1c(C(C)C)cc(OCCO)cc1C(C)C,inactive: 83.6 µM
22,COc1ccc2c(c1OC)C(C(Cl)(Cl)Cl)N1CCc3cc4c(cc3C1=C2)OCO4 (stereo unspecified),inactive: 40.2 µM
23,CCN(C(C)=O)c1cnc(/C=N/NC(N)=S)c2ccccc12,inactive: 1.45 µM

#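 Grown in 96-well plates, cells were treated for 48 hours with each compound at five concentrations. Insufficient inhibition: endpoint recorded as highest concentration tested. GI50 = concentration required for 50% inhibition of growth.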 Active and inactive are the calls of the source. No stated cut-off is given here; in the data, active = GI50 up to about 1.1 µM and inactive = higher.
